PubChem BioAssay (NCI)
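Following 48 hours of exposure in 96-well plates, responses at five concentrations were used to interpolate endpoints linearly. Here, GI50 denotes the concentration required for 50% inhibition of growth. TGI denotes the concentration required for complete inhibition of growth.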

Each molecule was assayed on NCI-H322M lung (assay: NCI anticancer screen, dose series, 48 h).
`COC(=O)c1cc(/C=C/c2ccc(S(N)(=O)=O)cc2)ccc1O` was tested, and the GI50 was 74.1 µM and the TGI was > 100 µM. For `COC(=O)c1cccc2cccc(C(=O)Nc3ccc(Cl)cc3)c12`, the TGI was > 100 µM. With `CCOc1ccccc1NC(=O)C(=O)Cc1nc2ccccc2s1` the TGI was > 100 µM. With `CC1=C(C(=O)NNS(=O)(=O)c2ccc(C)cc2)CC(C(=O)NNS(=O)(=O)c2ccc(C)cc2)=C(C)N1` the TGI was > 100 µM. `O=C(CNCc1ccccc1)Oc1c(Cl)c(Cl)c(Cl)c(Cl)c1Cl` was tested, and the TGI was 70.3 µM. `CC1=C(c2cc(C(=O)Nc3ccc(Cl)cc3)nc(=S)[nH]2)Sc2ccccc2N1` was tested, and the TGI was > 100 µM. In the case of `S=C1SC2=Nc3ccccc3CN2C2=NCCN12`, the GI50 is reported as > 100 µM and the TGI is reported as > 100 µM. With `O=c1oc2ccc(Br)cc2c(=O)n1-c1ccc(F)cc1F` the GI50 was 2.32 µM and the TGI was > 100 µM. `Cc1ccc(-c2c(C#N)c(-c3ccc([N+](=O)[O-])cc3)c(C#N)c(=O)n2NS(=O)(=O)c2ccccc2)cc1` was tested, and the TGI was > 100 µM. For `CC(C)(C)C(=O)C(Cc1ccccc1)C(=O)C(C)(C)C`, the TGI was > 100 µM. With `C[C@H]1CCC/C=C/[C@@H]2C[C@H](O)C[C@H]2[C@H](O)[C@@H](SCC(O)CO)CC(=O)O1` (stereo not given in full) the GI50 was 42.1 µM and the TGI was > 100 µM.
